# Experimental data taken from PubChem BioAssay AID624418 (National Center for Advancing Translational Sciences (NCATS), 2012).
# Screen size: about 410,000 compounds; about 530 (0.13%) were called active. This list was built around the results that the source calls inconclusive (neither active nor inactive); the mix of calls is not that of the screen. The call rests on the fitted dose curve; in most records, active means well fitted inhibition curve with a large enough effect; inconclusive means small, poorly fitted or top-dose-only effect, or another doubt; inactive means no such curve, though single readings can be large or run the other way. A potency beside an inconclusive call is a rough fit, not a confirmed value.
# Assay: qHTS of GLP-1 Receptor Inverse Agonists: Cytotox Screen
# Conditions: HEK293 cAMP-luciferase reporter cells, luminescence, 24 h; activity change, negative = inhibition: at 38.3 µM (top of the series) unless noted
# How it was run: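 A 23 nL compound transfer followed 12 hours of cell culture at 37 deg C; exposure then lasted 24 hr. Luciferase assay detection reagent was dispensed and plates read for luminescence after a 12 min room-temperature wait.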
# On the % scale 0 is the no-effect control and ±100 the full control effect; potency means the concentration at half of the fitted maximal effect.
Compound,Potency,"activity change, negative = inhibition"
COCCCNC(=O)c1cccc2c(-c3ccc(O)c(OC)c3)coc12,"inconclusive: 28.2 µM [inhibitor, single point]",–
Cc1ccc(NC(=O)c2cc(=O)c3ccccc3o2)cc1S(=O)(=O)N1CCCCC1,"inconclusive: 15.8 µM [inhibitor, partial curve, poor fit]",–
O=C(COC(=O)/C=C/c1ccccc1)NCCc1ccc(F)cc1,"inconclusive: 12.6 µM [inhibitor, single point]",–
O=C(Cn1c(=O)n(Cc2nc(-c3ccccc3)no2)c(=O)c2cc3c(cc21)OCO3)Nc1cccc(C(F)(F)F)c1,inactive,–
COc1ccccc1-c1cc(C(F)(F)F)nc(S(=O)(=O)CCCC(=O)Nc2ccc(F)cc2F)n1,inactive,–
COc1cccc(NC(=S)NCc2ccc3c(c2)cc(C)n3C)c1,"inconclusive: 10 µM [inhibitor, single point]",–
C#CCN(C[C@@H]1[C@@H](OC(=O)NCC2CCCCC2)[C@@H](OC(=O)NCC2CCCCC2)Cn2c(=O)ccc(=O)n21)S(=O)(=O)c1ccc(C)cc1,"inconclusive: 5.01 µM [inhibitor, full curve]",–
O=c1[nH]c(C2CCN(S(=O)(=O)c3cccc(C(F)(F)F)c3)CC2)nc2c1nnn2Cc1cccc(F)c1,"inconclusive: 10 µM [inhibitor, single point]",–
CCN(CC)CCC=C(c1cccs1)c1cccs1,"inconclusive: 12.6 µM [inhibitor, single point]",–
Nc1nonc1C(=O)N/N=C/c1ccc(-c2ccc(Cl)c(C(=O)O)c2)o1,–,inactive: -2.58% [at 7.66 µM]
CC(C)c1ccccc1OCCNC(=S)NC(=O)c1cccnc1,"inconclusive: 31.6 µM [inhibitor, partial curve, poor fit]",–
COc1cc2c(cc1OC)C(=S)NC1(CCCC1)C2,"inconclusive: 28.2 µM [inhibitor, single point]",–
O=C(/C=C\Nc1ccccn1)c1ccccc1,inactive,–
COc1ccc([N+](=O)[O-])c(S(=O)(=O)c2ccccc2)n1,"inconclusive: 0.447 µM [inhibitor, full curve, poor fit]",–
O=C(CCNC(=O)c1ccc([N+](=O)[O-])cc1)Nc1ccccc1N1CCCCC1,inactive,–
CCCNC(=O)C1(C)CCN(C(=O)c2ccc3c(c2)CCO3)C1 (stereo unspecified),inactive,–
Cc1ccccc1NS(=O)(=O)c1ccc2c3c(cccc13)C(=O)N2C,inactive,–
O=C(Nc1ccc(-c2nc3ccccc3[nH]2)cc1)c1ccco1,"inconclusive: 3.55 µM [inhibitor, full curve]",–
Fc1ccc(NC(=S)NN=Cc2ccccc2Cl)cc1,"inconclusive: 2.51 µM [inhibitor, full curve, poor fit]",–
CCN1C[C@@H]2[C@@H]3C(=O)N(C)C(=O)[C@@H]3[C@](CC)(C1=O)N2C(=O)c1ccc(C)cc1,"inconclusive: 0.891 µM [inhibitor, full curve]",–
O=C(/C=C/c1cccs1)NC(=S)Nc1ccccc1,"inconclusive: 28.2 µM [inhibitor, single point]",–
CN(C)CCNC(=O)c1onc(CSc2ccc(F)cc2)c1C(=O)NCCN(C)C,"inconclusive: 2.51 µM [inhibitor, full curve, poor fit]",–

Compound,Potency,"activity change, negative = inhibition"
COc1ccccc1NC(=O)c1ccc(NC(=O)COC(=O)C2(C)CC2(Cl)Cl)cc1 (stereo unspecified),"inconclusive: 10 µM [inhibitor, partial curve]",–
CCOC(=O)C1(CCCc2ccccc2)CCN(Cc2cnc(C)s2)CC1,inactive,–
Cc1cccc(CNC(=O)C2CCN(S(=O)(=O)c3ccc4c(c3)CCCN4C(=O)C3CCC3)CC2)c1,inactive,–
CCC(C)n1c(SCC(=O)NC(=O)Nc2ccc3c(c2)OCCO3)nc2ccccc2c1=O (stereo unspecified),"inconclusive: 28.2 µM [inhibitor, single point]",–
Cn1c(CN2CCCCC2)nc2cc(NC(=O)c3ccccc3)ccc21,inactive,–
Cc1ccc(S(=O)(=O)c2nc(-c3ccccc3Br)oc2N(C)C)cc1,"inconclusive: 11.2 µM [inhibitor, single point]",–
Cc1cccc(C)c1NC(=S)NC(=O)CCc1ccccc1,"inconclusive: 14.1 µM [inhibitor, single point]",–
COc1ccc(C2C(C#N)=C(N)Oc3c2ccc2cccnc32)cc1OC (stereo unspecified),"inconclusive: 1 µM [inhibitor, full curve]",–
S=C1SCN(Cc2ccco2)CN1Cc1ccco1,"inconclusive: 2.82 µM [inhibitor, full curve]",–
COc1ccc(N2CCN(C(=O)c3csc4ccccc34)CC2)cc1,"inconclusive: 12.6 µM [inhibitor, single point]",–
NC(=O)NC(Cc1ccccc1)C(=O)O (stereo unspecified),"inconclusive: 2.82 µM [inhibitor, full curve, poor fit]",–
COc1ccccc1Cc1c(C2CCCCC2)nc2ccc(C)cn12,"inconclusive: 25.1 µM [inhibitor, single point]",–
Cc1sc2nc(CN(C(=O)c3cccs3)C3CCCC3)[nH]c(=O)c2c1C,"inconclusive: 28.2 µM [inhibitor, single point]",–
C=CCNC(=S)Nc1cc(C)ccn1,"inconclusive: 12.6 µM [inhibitor, single point]",–
O=C(CSc1n[nH]c(-c2ccccc2O)n1)N1CCCc2ccccc21,"inconclusive: 6.31 µM [inhibitor, partial curve, poor fit]",–
CC1CC(C)CN(CCOCCSc2ccc(Cl)cc2)C1 (stereo unspecified),"inconclusive: 31.6 µM [inhibitor, single point]",–
COc1ccc(COc2cc(-c3cccc(OC)c3)nc3ccc(NC(=O)c4ccc(OC)cc4)cc23)cc1,inactive,–
C/C(CCC(C)C)=N\NC(=S)Nc1cc(S(=O)(=O)N2CCOCC2)ccc1N1CCOCC1,"inconclusive: 28.2 µM [inhibitor, single point]",–
CC(C)c1ccc(NC(=S)NC2CCN(Cc3ccccc3)CC2)cc1,"inconclusive: 28.2 µM [inhibitor, single point]",–
CC1CC(C)CN(CCCNC(=O)c2ccc3c(c2)N(Cc2ccccc2)C(=O)c2ccccc2S3=O)C1 (stereo unspecified),inactive,–
Cc1ccc(-n2ncc(C(=O)NCC3CCN(C4CCCC4)C3)c2C2CCN(C(=O)OC(C)(C)C)CC2)cc1C (stereo unspecified),"inconclusive: 20 µM [inhibitor, single point]",–
O=C(Cn1sc2ccccc2c1=O)Nc1ccc(F)cc1,inactive,–

Compound,Potency,"activity change, negative = inhibition"
Cc1nc(NC(=S)NC(=O)c2ccccc2)sc1C,"inconclusive: 2.24 µM [inhibitor, full curve, poor fit]",–
COc1ccc(OC)c(Nc2nc(-c3ccc(O)c(O)c3)cs2)c1,"inconclusive: 12.6 µM [inhibitor, single point]",–
C=CCSc1nsc(NC(=O)Nc2ccc(F)cc2)n1,"inconclusive: 2 µM [inhibitor, partial curve, poor fit]",–
CC(C)(C)OC(=O)C[C@H]1C/C=C\C[C@@H](CC(=O)N[C@@H](CO)Cc2ccccc2)C(=O)NC[C@@H](c2ccccc2)OC1=O,"inconclusive: 5.62 µM [inhibitor, partial curve, poor fit]",–
COc1ccc(CN2CCc3c([nH]c4ccccc34)C2)c(OC)c1C,"inconclusive: 11.2 µM [inhibitor, single point]",–
Cc1ccc(S(=O)(=O)c2ncccc2[N+](=O)[O-])cc1,"inconclusive: 10 µM [inhibitor, partial curve, poor fit]",–
CCN1CCN(Cc2ccc(NC(=O)c3cc(NC(=O)c4cc5cccc(OC)c5o4)cc(OC)c3)cc2C(F)(F)F)CC1,"inconclusive: 28.2 µM [inhibitor, single point]",–
O=C1c2cccc3cccc(c23)C(=O)N1c1cccnc1,inactive,–
C/C(=N/NC(=O)COc1cc(C)ccc1C(C)C)C(=O)O,"inconclusive: 1 µM [inhibitor, full curve]",–
O=C1c2ccccc2-c2onc3ccc(N4CCCC4)c1c23,"inconclusive: 8.91 µM [inhibitor, partial curve, poor fit]",–
S=C(NCc1ccccc1)NCc1ccc(Cl)cc1,"inconclusive: 28.2 µM [inhibitor, single point]",–
CCCCCOc1ccc(Br)cc1CSC(=N)N,active: 10 µM,–
COCCN(CCOC)Cc1c(O)ccc2c1O/C(=C\c1ccc(C)o1)C2=O,inactive,–
Clc1cccc(NCc2nnc(SCc3ccccc3Cl)o2)c1,inactive,–
COc1ccc(-c2nn(-c3ccccc3)cc2C(=O)Nc2nccs2)cc1,"inconclusive: 22.4 µM [inhibitor, single point]",–
Oc1ccccc1OCCOc1ccccc1OCCOc1ccccc1O,"inconclusive: 15.8 µM [inhibitor, single point]",–
COc1ccc(C)cc1NC(=S)NC(C)c1ccc(OC)c(OC)c1 (stereo unspecified),"inconclusive: 8.91 µM [inhibitor, partial curve, poor fit]",–
CN(CC(=O)Nc1ccc(Cl)c(C(F)(F)F)c1)C(=O)Cc1c[nH]c2ccccc12,"inconclusive: 11.2 µM [inhibitor, single point]",–
Cc1cc(Oc2ccc(-c3ccccc3)cc2)n2ncnc2n1,"inconclusive: 31.6 µM [inhibitor, single point]",–
C/C(=N/OC(=O)c1ccc(Cl)cc1Cl)c1oc(C)nc1C,inactive,–
CC1S/C(=N/N=C2CCCCC2)NC1=O (stereo unspecified),"inconclusive: 11.2 µM [inhibitor, partial curve, poor fit]",–
CC(C)(C)c1cc(C(c2cccnc2)N2CCN(CCO)CC2)cc(C(C)(C)C)c1O (stereo unspecified),"inconclusive: 10 µM [inhibitor, partial curve, poor fit]",–
